Data: PubChem BioAssay AID588591 (National Center for Advancing Translational Sciences (NCATS), 2011)
In all, about 390,000 compounds went through this assay and about 4,700 (1.2%) were called active. The shares of active, inactive and inconclusive entries below differ from those in the screen. Calls follow the shape of the dose curve; as a rule, active = well fitted inhibition curve with a large enough effect; inconclusive = small, poorly fitted or top-dose-only effect, or another doubt; inactive = no such curve, though single readings can be large or run the other way. Potencies beside an inconclusive call are fits to weak or partial responses and may not hold up.

Molecular target: DNA polymerase eta (Homo sapiens) (UniProt Q9Y253)
Experiment: qHTS for Inhibitors of Polymerase Eta
Conditions: recombinant Pol eta, fluorescent DNA replication assay; series mostly up to 114 µM; activity change, negative = inhibition: at the top concentration
Method in brief: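 Pol eta (10 nM) was preincubated with compounds for 15 min at room temperature, after which fluorescent replication substrate (50 nM final) was added to start the reaction. Fluorescence was read kinetically at 0 and 10 min.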
% is scaled to controls: 0 for no effect and ±100 for the full control effect; potency is read from the fitted curve at half-maximal effect; tags tell the direction and shape of the fitted curve.

Sequence of UniProt Q9Y253 (Q9Y253 whole entry, looked up): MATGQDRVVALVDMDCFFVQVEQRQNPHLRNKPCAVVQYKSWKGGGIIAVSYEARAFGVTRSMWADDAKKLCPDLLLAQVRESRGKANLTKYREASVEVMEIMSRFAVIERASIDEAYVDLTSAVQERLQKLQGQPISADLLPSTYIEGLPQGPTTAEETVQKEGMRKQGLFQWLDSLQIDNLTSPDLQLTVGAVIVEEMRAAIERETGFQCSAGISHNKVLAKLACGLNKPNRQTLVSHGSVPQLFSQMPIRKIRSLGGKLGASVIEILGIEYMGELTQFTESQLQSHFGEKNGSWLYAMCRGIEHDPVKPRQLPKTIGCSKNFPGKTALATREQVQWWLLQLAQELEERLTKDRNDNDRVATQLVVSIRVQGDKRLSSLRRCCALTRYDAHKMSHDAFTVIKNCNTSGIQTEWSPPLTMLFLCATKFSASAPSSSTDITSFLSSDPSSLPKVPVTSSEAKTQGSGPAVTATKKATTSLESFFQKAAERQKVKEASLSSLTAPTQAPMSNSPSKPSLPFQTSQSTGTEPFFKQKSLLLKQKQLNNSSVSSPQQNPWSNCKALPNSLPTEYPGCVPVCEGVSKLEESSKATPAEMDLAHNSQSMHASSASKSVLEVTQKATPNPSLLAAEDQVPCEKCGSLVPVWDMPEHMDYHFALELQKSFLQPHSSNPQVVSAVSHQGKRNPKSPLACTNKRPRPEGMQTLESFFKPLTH

Row | Compound | Potency | activity change, negative = inhibition
1 | C/C(=N\OCc1nc2ccccc2c(=O)n1/N=C/c1cc([N+](=O)[O-])ccc1O)c1ccccc1 | inconclusive: 79.4 µM [inhibitor, partial curve] | 
2 | Cc1cnc(C(=O)Nc2ccccc2-c2nnn(CC(=O)NC3CCCC3)n2)cn1 | inconclusive: 8.91 µM [inhibitor, partial curve, poor fit] | 
3 | O=C1COc2ccc(C(=O)COC(=O)c3ccc4ccccc4n3)cc2N1 | inconclusive: 14.1 µM [inhibitor, full curve, poor fit] | 
4 | CC(C)(C)c1ccc(-c2nc3n(c(=O)c2C#N)CCS3)cc1 | inconclusive: 89.1 µM [inhibitor, partial curve, poor fit] | 
5 | COCCNC(=O)C1CCC(CNS(=O)(=O)c2c(C)cc(C)cc2C)CC1 (stereo not given) | inconclusive: 35.5 µM [inhibitor, single point] | 
6 | Cc1n[nH]c(=S)n(NC(=O)/C=C/C(=O)Nn2c(=S)[nH]nc(C)c2=O)c1=O | active: 8.91 µM | 
7 | CCOC(=O)c1sc(N2C(=O)C(O)=C(C(=O)c3ccc(C)o3)C2c2ccc(OC)c(OC)c2)nc1C (stereo not given) |  | inactive: -7.77%
8 | O=C(CSc1c(Cl)cccc1Cl)NC1CCCc2ccccc21 (stereo not given) | inconclusive: 31.6 µM [inhibitor, single point] | 
9 | Cc1c(NC(=O)c2cc3nc(-c4ccccc4)cc(C)n3n2)c(=O)n(-c2ccccc2)n1C | inconclusive: 20 µM [inhibitor, partial curve, poor fit] | 
10 | Cc1cc(C)cc(OCC(=O)Nc2cc(NC(=O)COc3cc(C)cc(C)c3)cc(C(=O)O)c2)c1 | inconclusive: 63.1 µM [inhibitor, partial curve, poor fit] | 
11 | Cc1ccc2[nH]c(-c3ccccc3)cc(=O)c2c1 |  | inactive: -13%
12 | Cc1c(C(=O)OCC2CCCO2)[nH]c2c1C(=O)CC(c1ccco1)C2 (stereo not given) | active: 3.16 µM | 
13 | CCOC(=O)c1c(C)oc2c1c(C(c1ccncc1)N1CCOCC1)c(O)c1ccccc12 (stereo not given) | inconclusive: 25.1 µM [inhibitor, partial curve, poor fit] | 
14 | O=C(Nc1ccc2nc3ccccc3nc2c1)c1ccccc1 | inconclusive: 31.6 µM [inhibitor, single point] | 
15 | O=S(=O)(O)c1cccc2c(N=Nc3ccc(O)c4ncccc34)cccc12 | active: 3.16 µM | 
16 | Cn1cc(C(=O)N2CCN(c3ccccc3)CC2)c(=O)c2cc(S(=O)(=O)N3CCOCC3)ccc21 | inconclusive: 89.1 µM [inhibitor, single point] | 
17 | COc1cc(/C=C2\SC(=S)N(C(C(=O)O)c3ccccc3)C2=O)ccc1O (stereo not given) | inconclusive: 50.1 µM [inhibitor, partial curve] | 
18 | Cc1ccc(OCC(=O)NNC(=O)C2CSC3(C)CCC(=O)N23)cc1 (stereo not given) |  | inactive: 0.139%
19 | Cc1ccc(CSc2nc(-c3ccc(C(C)(C)C)cc3)nc3cc(=O)[nH]n23)cc1 | active: 50.1 µM | 
20 | Cc1cc(NS(=O)(=O)c2ccc(NC(=O)/C=C/c3ccc(Br)cc3)cc2)no1 |  | inactive: 5.65%

Row | Compound | Potency | activity change, negative = inhibition
21 | CCOc1ccc(N=Cc2ccc(N(C)C)cc2)c(O)c1 | inconclusive: 25.1 µM [inhibitor, partial curve, poor fit] | 
22 | COCCOC(=O)c1c(C)nc(SCC(=O)Nc2ccc(OC)cc2)c(C#N)c1-c1ccco1 | inconclusive: 89.1 µM [inhibitor, single point] | 
23 | Cc1ccc(N2C(=O)/C(=C\c3ccco3)SC2=S)cc1 | inconclusive: 15.8 µM [inhibitor, full curve, poor fit] | 
24 | CN(Cc1ccccc1)C(=O)c1cccc(NC(=O)c2nsc3ccccc23)c1 |  | inactive: -17.9%
25 | CCCCN(CC(=O)NC1CC1)S(=O)(=O)c1ccc(OCC)cc1 | inconclusive: 89.1 µM [inhibitor, single point] | 
26 | CN1CCN(C(=O)C2CCCN(S(=O)(=O)c3ccccc3)C2)CC1 (stereo not given) | inconclusive: 89.1 µM [inhibitor, single point] | 
27 | Cc1cccc2c(N=NC(=O)C(C)n3cnc4ccccc4c3=O)c(O)[nH]c12 (stereo not given) | inconclusive: 35.5 µM [inhibitor, partial curve, poor fit] | 
28 | NC(=O)c1ccsc1NC(=O)COC(=O)c1ccccc1NCc1ccco1 | inconclusive: 28.2 µM [inhibitor, single point] | 
29 | CSc1ccccc1NC(=S)NCc1ccc(Cl)cc1 | inconclusive: 44.7 µM [inhibitor, partial curve, poor fit] | 
30 | Cc1ccc(OCCCCN(C)Cc2ccccc2)c(Br)c1 | inconclusive: 89.1 µM [inhibitor, partial curve, poor fit] | 
31 | c1ccc(-c2cc3c(-n4cccc4)ncnc3o2)cc1 | inconclusive: 20 µM [inhibitor, partial curve, poor fit] | 
32 | CC(C)C1N=C2c3ccccc3N=C(SCC(=O)NCc3ccccc3Cl)N2C1=O (stereo not given) |  | inactive: -5.57%
33 | Cc1csc2ncnc(N3CCN(C(=S)Nc4ccc(C(F)(F)F)cc4)CC3)c12 | inconclusive: 39.8 µM [inhibitor, partial curve, poor fit] | 
34 | CCOP(=O)(OCC)C(Nc1ccccn1)c1ccccc1 (stereo not given) | inconclusive: 79.4 µM [inhibitor, partial curve, poor fit] | 
35 | Cc1ccc(C)c(S(=O)(=O)N2CCN(C(=O)c3ccc(OCc4c(C)noc4C)cc3)CC2)c1 |  | inactive: -13%
36 | CCCC(C(=O)NCCC(C)C)N(Cc1ccccc1)C(=O)c1snc(C(N)=O)c1N (stereo not given) |  | inactive: -13.5%
37 | COCCCNCCCOc1ccc(C)cc1Br | inconclusive: 3.55 µM [inhibitor, partial curve, poor fit] | 
38 | COc1ccc(N2CCN(C(CNC(=O)C(=O)NCc3ccc4c(c3)OCO4)c3ccco3)CC2)cc1 (stereo not given) | inconclusive: 89.1 µM [inhibitor, partial curve, poor fit] | 
39 | C[C@@H](NC(=O)[C@@H]1Cc2ccccc2CN1)C(=O)NC1CCCCC1 | inconclusive: 100 µM [inhibitor, partial curve, poor fit] | 
40 | O=C(c1ccccc1)c1cc2ccccc2o1 | inconclusive: 89.1 µM [inhibitor, single point] | 
